# Assay results taken from the supplement of paper PMC8728848.
# Some of the results follow.
# B1: Glycodelin A (Homo sapiens), P09466 (protein)
# chain: MLCLLLTLGVALVCGVPAMDIPQTKQDLELPKLAGTWHSMAMATNNISLMATLKAPLRVHITSLLPTPEDNLEIVLHRWENNSCVEKKVLGEKTENPKKFKINYTVANEATLLDTDYDNFLFLCLQDTTTPIQSMMCQYLARVLVEDDEIMQGFIRAFRPLPRHLWYLLDLKQMEEPCRF
# Columns and labels:
# Assay in all cases: glycan array binding signal (z-score within array); higher = stronger binding
# Settings in all cases: glycan notation: IUPAC condensed, linker removed
# Gal(b1-2)Gal = target: Gal(b1-2)Gal
# Procedure, shortened: (§1)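 The binding signal is a Z-score computed within each array and averaged over linkers. Arrays of the same protein sequence at different concentrations or buffers were also averaged together. Data originate from 3228 arrays in the Consortium for Functional Glycomics database, kept only where the protein sequence was available.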
# Gal(b1-3)Gal = target: Gal(b1-3)Gal
# Procedure, shortened: as §1
# Gal(b1-3)Gal(b1-4)GlcNAc = target: Gal(b1-3)Gal(b1-4)GlcNAc
# Procedure, shortened: as §1
# Gal(b1-3)GalNAc = target: Gal(b1-3)GalNAc
# Procedure, shortened: as §1
# [1] = target: Gal(b1-3)GalNAc(b1-3)Gal(a1-4)Gal(b1-4)Glc
# Procedure, shortened: as §1
# [2] = target: Gal(b1-3)GalNAc(b1-4)Gal(b1-4)Glc
# Procedure, shortened: as §1
# [3] = target: Gal(b1-3)GalNAc(b1-4)[Neu5Ac(a2-3)]Gal(b1-4)Glc
# Procedure, shortened: as §1
# Gal(b1-3)GlcNAc = target: Gal(b1-3)GlcNAc
# Procedure, shortened: as §1
# [4] = target: Gal(b1-3)GlcNAc(b1-2)Man(a1-3)[Gal(b1-3)GlcNAc(b1-2)Man(a1-6)]Man(b1-4)GlcNAc(b1-4)GlcNAc
# Procedure, shortened: as §1
# [5] = target: Gal(b1-3)GlcNAc(b1-3)Gal(b1-3)GlcNAc
# Procedure, shortened: as §1
# [6] = target: Gal(b1-3)GlcNAc(b1-3)Gal(b1-4)Glc
# Procedure, shortened: as §1
# [7] = target: Gal(b1-3)GlcNAc(b1-3)Gal(b1-4)GlcNAc
# Procedure, shortened: as §1
# [8] = target: Gal(b1-3)[Fuc(a1-4)]GlcNAc
# Procedure, shortened: as §1
# [9] = target: Gal(b1-3)[Fuc(a1-4)]GlcNAc(b1-3)Gal(b1-3)[Fuc(a1-4)]GlcNAc
# Procedure, shortened: as §1
# [10] = target: Gal(b1-3)[Fuc(a1-4)]GlcNAc(b1-3)Gal(b1-4)GlcNAc
# Procedure, shortened: as §1
# [11] = target: Gal(b1-3)[Fuc(a1-4)]GlcNAc(b1-3)Gal(b1-4)[Fuc(a1-3)]GlcNAc
# Procedure, shortened: as §1
# [12] = target: Gal(b1-3)[GlcNAc(b1-6)]GalNAc
# Procedure, shortened: as §1
# [13] = target: Gal(b1-3)[Neu5Ac(a2-6)]GalNAc
# Procedure, shortened: as §1
# [14] = target: Gal(b1-3)[Neu5Ac(a2-6)]GlcNAc(b1-6)Gal(b1-4)Glc
# Procedure, shortened: as §1
# [15] = target: Gal(b1-3)[Neu5Ac(b2-6)]GalNAc
# Procedure, shortened: as §1
# [16] = target: Gal(b1-4)GalNAc(a1-3)[Fuc(a1-2)]Gal(b1-4)GlcNAc
# Procedure, shortened: as §1
# [17] = target: Gal(b1-4)GalNAc(b1-3)[Fuc(a1-2)]Gal(b1-4)GlcNAc
# Procedure, shortened: as §1
# Gal(b1-4)Glc = target: Gal(b1-4)Glc
# Procedure, shortened: as §1
# Gal(b1-4)Glc6S = target: Gal(b1-4)Glc6S
# Procedure, shortened: as §1
# Gal(b1-4)GlcNAc = target: Gal(b1-4)GlcNAc
# Procedure, shortened: as §1
# [18] = target: Gal(b1-4)GlcNAc(a1-6)Gal(b1-4)GlcNAc
# Procedure, shortened: as §1
# [19] = target: Gal(b1-4)GlcNAc(b1-2)Man(a1-3)[Gal(b1-4)GlcNAc(b1-2)Man(a1-6)]Man(b1-4)GlcNAc(b1-4)GlcNAc
# Procedure, shortened: as §1
# [20] = target: Gal(b1-4)GlcNAc(b1-3)Gal(b1-3)GlcNAc
# Procedure, shortened: as §1
# [21] = target: Gal(b1-4)GlcNAc(b1-3)Gal(b1-4)Glc
# Procedure, shortened: as §1
# [22] = target: Gal(b1-4)GlcNAc(b1-3)Gal(b1-4)GlcNAc
# Procedure, shortened: as §1
# [23] = target: Gal(b1-4)GlcNAc(b1-3)Gal(b1-4)GlcNAc(b1-3)Gal(b1-4)GlcNAc
# Procedure, shortened: as §1
# [24] = target: Gal(b1-4)GlcNAc(b1-3)Gal(b1-4)[Fuc(a1-3)]GlcNAc(b1-3)Gal(b1-4)[Fuc(a1-3)]GlcNAc
# Procedure, shortened: as §1
# [25] = target: Gal(b1-4)GlcNAc(b1-3)GalNAc
# Procedure, shortened: as §1
# [26] = target: Gal(b1-4)GlcNAc(b1-3)[Gal(b1-4)GlcNAc(b1-6)]Gal(b1-4)GlcNAc
# Procedure, shortened: as §1
# [27] = target: Gal(b1-4)GlcNAc(b1-3)[GlcNAc(b1-6)]Gal(b1-4)GlcNAc
# Procedure, shortened: as §1
# [28] = target: Gal(b1-4)GlcNAc(b1-6)Gal(b1-4)GlcNAc
# Procedure, shortened: as §1
# [29] = target: Gal(b1-4)GlcNAc(b1-6)Gal(b1-4)GlcNAc(b1-6)GalNAc
# Procedure, shortened: as §1
# [30] = target: Gal(b1-4)GlcNAc(b1-6)GalNAc
# Procedure, shortened: as §1
# [31] = target: Gal(b1-4)GlcNAc(b1-6)[Gal(b1-3)]GalNAc
# Procedure, shortened: as §1
# Gal3S(b1-3)GalNAc = target: Gal3S(b1-3)GalNAc
# Procedure, shortened: as §1
# Gal3S(b1-3)GlcNAc = target: Gal3S(b1-3)GlcNAc
# Procedure, shortened: as §1
# [32] = target: Gal3S(b1-3)[Fuc(a1-4)]GlcNAc
# Procedure, shortened: as §1
# Gal3S(b1-4)Glc = target: Gal3S(b1-4)Glc
# Procedure, shortened: as §1
# Gal3S(b1-4)Glc6S = target: Gal3S(b1-4)Glc6S
# Procedure, shortened: as §1
# Gal3S(b1-4)GlcNAc = target: Gal3S(b1-4)GlcNAc
# Procedure, shortened: as §1
# Gal3S(b1-4)GlcNAc6S = target: Gal3S(b1-4)GlcNAc6S
# Procedure, shortened: as §1
# [33] = target: Gal3S(b1-4)[Fuc(a1-3)]Glc
# Procedure, shortened: as §1
# Gal3S4S(b1-4)GlcNAc = target: Gal3S4S(b1-4)GlcNAc
# Procedure, shortened: as §1
# Gal3S6S(b1-4)GlcNAc = target: Gal3S6S(b1-4)GlcNAc
# Procedure, shortened: as §1
# Gal3S6S(b1-4)GlcNAc6S = target: Gal3S6S(b1-4)GlcNAc6S
# Procedure, shortened: as §1
# Gal4S(b1-4)GlcNAc = target: Gal4S(b1-4)GlcNAc
# Procedure, shortened: as §1
# Gal4S6S(b1-4)GlcNAc = target: Gal4S6S(b1-4)GlcNAc
# Procedure, shortened: as §1
# Gal6S(b1-4)Glc = target: Gal6S(b1-4)Glc
# Procedure, shortened: as §1
# Gal6S(b1-4)Glc6S = target: Gal6S(b1-4)Glc6S
# Procedure, shortened: as §1
# Gal6S(b1-4)GlcNAc = target: Gal6S(b1-4)GlcNAc
# Procedure, shortened: as §1
# Gal6S(b1-4)GlcNAc6S = target: Gal6S(b1-4)GlcNAc6S
# Procedure, shortened: as §1
# GalNAc(a1-3)Gal = target: GalNAc(a1-3)Gal
# Procedure, shortened: as §1
# GalNAc(a1-3)GalNAc = target: GalNAc(a1-3)GalNAc
# Procedure, shortened: as §1
# GalNAc(b1-3)Gal = target: GalNAc(b1-3)Gal
# Procedure, shortened: as §1
# [34] = target: GalNAc(b1-3)Gal(a1-4)Gal(b1-4)GlcNAc
# Procedure, shortened: as §1
binder,measurement,setting,value
B1,glycan array binding signal (z-score),Gal(b1-2)Gal,-0.178
same,glycan array binding signal (z-score),Gal(b1-3)Gal,-0.358
same,glycan array binding signal (z-score),Gal(b1-3)Gal(b1-4)GlcNAc,-0.397
same,glycan array binding signal (z-score),Gal(b1-3)GalNAc,0.456
same,glycan array binding signal (z-score),[1],-0.473
same,glycan array binding signal (z-score),[2],2.88
same,glycan array binding signal (z-score),[3],2.27
same,glycan array binding signal (z-score),Gal(b1-3)GlcNAc,-0.392
same,glycan array binding signal (z-score),[4],-0.359
same,glycan array binding signal (z-score),[5],-0.463
same,glycan array binding signal (z-score),[6],-0.345
same,glycan array binding signal (z-score),[7],-0.53
same,glycan array binding signal (z-score),[8],0.183
same,glycan array binding signal (z-score),[9],1.38
same,glycan array binding signal (z-score),[10],1.52
same,glycan array binding signal (z-score),[11],-0.44
same,glycan array binding signal (z-score),[12],0.309
same,glycan array binding signal (z-score),[13],-0.314
same,glycan array binding signal (z-score),[14],-0.362
same,glycan array binding signal (z-score),[15],-0.465
same,glycan array binding signal (z-score),[16],-0.317
same,glycan array binding signal (z-score),[17],-0.364
same,glycan array binding signal (z-score),Gal(b1-4)Glc,-0.395
same,glycan array binding signal (z-score),Gal(b1-4)Glc6S,-0.418
same,glycan array binding signal (z-score),Gal(b1-4)GlcNAc,-0.424
same,glycan array binding signal (z-score),[18],-0.269
same,glycan array binding signal (z-score),[19],-0.437
same,glycan array binding signal (z-score),[20],-0.433
same,glycan array binding signal (z-score),[21],-0.32
same,glycan array binding signal (z-score),[22],-0.418
same,glycan array binding signal (z-score),[23],-0.465
same,glycan array binding signal (z-score),[24],-0.463
same,glycan array binding signal (z-score),[25],-0.373
same,glycan array binding signal (z-score),[26],-0.32
same,glycan array binding signal (z-score),[27],-0.437
same,glycan array binding signal (z-score),[28],-0.419
same,glycan array binding signal (z-score),[29],-0.473
same,glycan array binding signal (z-score),[30],-0.374
same,glycan array binding signal (z-score),[31],-0.36
same,glycan array binding signal (z-score),Gal3S(b1-3)GalNAc,0.023
same,glycan array binding signal (z-score),Gal3S(b1-3)GlcNAc,0.12
same,glycan array binding signal (z-score),[32],3.69
same,glycan array binding signal (z-score),Gal3S(b1-4)Glc,-0.226
same,glycan array binding signal (z-score),Gal3S(b1-4)Glc6S,1.24
same,glycan array binding signal (z-score),Gal3S(b1-4)GlcNAc,-0.331
same,glycan array binding signal (z-score),Gal3S(b1-4)GlcNAc6S,-0.334
same,glycan array binding signal (z-score),[33],-0.37
same,glycan array binding signal (z-score),Gal3S4S(b1-4)GlcNAc,-0.288
same,glycan array binding signal (z-score),Gal3S6S(b1-4)GlcNAc,-0.168
same,glycan array binding signal (z-score),Gal3S6S(b1-4)GlcNAc6S,-0.456
same,glycan array binding signal (z-score),Gal4S(b1-4)GlcNAc,-0.451
same,glycan array binding signal (z-score),Gal4S6S(b1-4)GlcNAc,-0.305
same,glycan array binding signal (z-score),Gal6S(b1-4)Glc,0.625
same,glycan array binding signal (z-score),Gal6S(b1-4)Glc6S,-0.395
same,glycan array binding signal (z-score),Gal6S(b1-4)GlcNAc,-0.342
same,glycan array binding signal (z-score),Gal6S(b1-4)GlcNAc6S,-0.098
same,glycan array binding signal (z-score),GalNAc(a1-3)Gal,-0.099
same,glycan array binding signal (z-score),GalNAc(a1-3)GalNAc,-0.339
same,glycan array binding signal (z-score),GalNAc(b1-3)Gal,-0.229
same,glycan array binding signal (z-score),[34],-0.336
